# Data taken from patent publication US8158586B2, “Inhibitors of protein kinases and uses thereof” (priority 2005, dated 2012).
# “Also recorded” adds a separate entry of the source. At least one compound was matched to its structure with a doubt left. Some compounds share one wording; it may come from a single statement. Some entries share one result that the patent states for a list of compounds. Positions of bridges follow the written chain, without caps; N, C: chain ends. Non-standard residues stand in square brackets, D forms with d. Residues, ends and D or L forms follow the SMILES beside them. Chains are numbered I, II in the order given. *: point of attachment. PNA(A) = NCCN(CC(=O)*)C(=O)Cn1cnc2c(N)ncnc21; Adenin9ylacetyl = Nc1ncnc2c1ncn2CC(=O)*; N(CH2CH2NHAc)Gly = CC(=O)NCCNCC(=O)O
# Legend:
# [1] = tested on: MCF-7 breast cancer cell line; test: Cell death at 24 h after pinocytic loading, MCF-7; type: cell-based
# [2] = tested on: SKOV-3 ovarian cancer cell line; test: Cell death at 24 h after pinocytic loading, SKOV-3; type: cell-based
# [3] = tested on: LS-180 colon cancer cell line; test: Cell death at 24 h after pinocytic loading, LS180; type: cell-based
# [4] = tested on: MDA-MB-231 cells; test: Invasion of MDA-MB-231 cells through Matrigel matrix; type: cell-based; conditions: for % Inhibition of Invasion: % invasion in control cells minus % invasion in treated cells; for % Invasion / No. Cells Invading Matrigel Insert / No. Cells Migrating through Control Insert: MDA-MB-231
# [5] = tested on: PKCα expression in LS180 colon cancer cells; test: Expression of PKCα in LS180 cells, flow cytometry; type: cell-based; conditions: for effect on PKCα basal expression (summary): both cell lines (LS180, H-661)
# [6] = tested on: PKCα expression in H-661 NSCLC cells; test: Expression of PKCα in H-661 cells, flow cytometry; type: cell-based; conditions: for expression of PKCα, without doxorubicin: 5 μM
# [7] = tested on: PKC isoforms; test: PKC isoform panel, PepTag assay; type: biochemical
# [8] = tested on: H-661 NSCLC cells; test: Rhodamine influx and efflux in H-661 NSCLC cells; type: cell-based
# Description: The amount of rhodamine influx and efflux following treatment of LS180 colon cancer cells and H-661 NSCLC cells with the PKI compounds was also investigated. The measurement of rhodamine efflux and influx is a common procedure that provides a quantitative estimation of the level of multidrug resistance due to typical MDR and non-P-gp MDR. Both exogenous treatment using 5 μg/mL of the PKI compounds provided at the same time as doxorubicin, and endogenous incorporation, in which a single dose of 5 mM was used with the standard pinocytic endocytosis protocol, were investigated.
# The MDR-1 pump functions only as an efflux pump, however, it modulates the cell entry of rhodamine (that can diffuse through the membrane). Upon toxicant exposure, rhodamine accumulates in the cells. Ratios of rhodamine fluorescence in doxorubicin exposed versus untreated controls (CT) are lower if the pump is inhibited.
# [9] = tested on: MDA-MB-231 breast cancer cell line; test: Apoptosis, Hoechst staining, MDA-MB-231; type: cell-based; conditions: 50, 250 and 500 μM
# [10] = tested on: H-661 non-small cell lung cancer cells; test: Apoptosis, Hoechst staining, H-661; type: cell-based; conditions: 50, 250 and 500 μM
SMILES,"Percentage Cell Death at 24 h, MCF-7 ([1]; 5 mM) [%]","Percentage Cell Death at 24 h, MCF-7 ([1]; 10 mM) [%]","Percentage Cell Death at 24 h, SKOV-3 ([2]; 5 mM) [%]","Percentage Cell Death at 24 h, SKOV-3 ([2]; 10 mM) [%]","Percentage Cell Death at 24 h, LS180 ([3]; 5 mM) [%]","Percentage Cell Death at 24 h, LS180 ([3]; 10 mM) [%]",% Inhibition of Invasion [4] [%],% Invasion [4] [%],No. Cells Invading Matrigel Insert [4],No. Cells Migrating through Control Insert [4],"PKCα expression, cells exposed to doxorubicin ([5]; LS180, doxorubicin 50 ng/mL, tested concentration)","reduction in PKCα intracellular content, cells exposed to doxorubicin [6] [%]","expression of PKCα, without doxorubicin [6]",inhibition of PKC isoforms [7],"cell death induced in colon cancer cell line LS-180 ([3]; short term, 24 h)",effect on PKCα basal expression (summary) [5],reduction of accumulation of rhodamine in comparison to the control ([8]; cells treated endogenously) [%],"apoptosis / cytopathy, MDA-MB-231 [9]","apoptosis / cytopathy, H-661 [10]","reduction of rhodamine influx ([8]; exogenous treatment, highest concentrations) [%]"
CC[C@H](C)[C@H](NC(=O)[C@H](CSSC[C@H](NC(=O)CNC(=O)CN(CCNC(C)=O)C(=O)Cn1cnc2c(N)ncnc21)C(=O)N[C@@H](CCCCN)C(=O)NCC(=O)N[C@@H](CCCCN)C(=O)N[C@@H](Cc1ccccc1)C(=O)N[C@@H](CCCCN)C(=O)N[C@@H](CCCNC(=N)N)C(N)=O)NC(=O)[C@H](Cc1c[nH]cn1)NC(C)=O)C(=O)NCC(=O)N[C@@H](CCCNC(=N)N)C(=O)N[C@@H](Cc1ccccc1)C(=O)N[C@@H](CCCCN)C(N)=O [Compound 1] (I: Adenin9ylacetyl-[N(CH2CH2NHAc)Gly]GCKGKFKR-NH2 / II: Ac-HCIGRFK-NH2; disulfide I:3-II:2; N-terminus and C-terminus assumed),18,21,1,9,1,2,5.8,35.9,52.0,210,repressed the enzyme expression,≤ 50,did not have any effect,very potent inhibitors of all the PKCs isoforms except PKC epsilon and zeta,–,–,–,–,–,–
CC(=O)N[C@@H](CC(C)C)C(=O)N[C@@H](CCCNC(=N)N)C(=O)N[C@@H](CCCNC(=N)N)C(=O)N[C@@H](C)C(=O)N[C@@H](CCCCNC(=O)CN(CCN)C(=O)Cn1cnc2c(N)ncnc21)C(=O)N[C@@H](CC(C)C)C(=O)NCC(=O)O [Compound 2] (Ac-LRRAK(PNA(A))LG-OH; N-terminus and C-terminus assumed),3,29,2,14,48,52,2.0,62.1,34.6,63.3,–,≤ 50,powerful reducers,–,very sensitive to cell death; also recorded: powerful short-term activity,repressive effect,22,–,–,–
CC(=O)N[C@@H](Cc1ccccc1)C(=O)N[C@@H](CCCNC(=N)N)C(=O)N[C@@H](CCCNC(=N)N)C(=O)N[C@@H](CCCCNC(=O)CN(CCN)C(=O)Cn1cnc2c(N)ncnc21)C(=O)N[C@@H](Cc1ccccc1)C(=O)N[C@@H](CCCNC(=N)N)C(=O)N[C@@H](CC(C)C)C(=O)O [Compound 3] (Ac-FRRK(PNA(A))FRL-OH; N-terminus and C-terminus assumed),25,15,5,16,9,12,29.8,9.5,20.0,210.0,–,≤ 50,powerful reducers,–,–,repressive effect,–,clear dose response with increasing cytopathy; also recorded: apoptotic signals were triggered,clear dose response with increasing cytopathy; also recorded: apoptotic signals were triggered,22
